Here are results for 120 sequences from the supplement of paper PMC10126150.

Sequences with one replicate were seen in a single cluster, so their values are uncertain.
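Also: ATP exposure 15 min at 22 °C before imaging.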

This data set concerns ATP. Put plainly: switch fluorescence ratio, 500 uM ATP over buffer (Cy3 cluster intensity, sum of 5 cycles each) (fold (ratio)); higher = stronger signal-on switching upon ATP binding; sequences stand for … in TCGTCGGCAGCGTCAGATGTGTATAAGAGACAGTTTTTTTTTTTTTTTTTTTTTTTTT…TC. As to conditions: aptamer strand: ATP DNA aptamer (quencher-CACCTGGGGGAGTATTGCGGAGGAAGG + anchor), 100 nM annealed; ATP concentration: 500 uM; one replicate. The procedure, abridged: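 The fluorescence ratio divides summed target-cycle Cy3 intensity by summed buffer-cycle Cy3 intensity for each cluster and is averaged per switch-domain sequence. Cy3-labelled switching-strand clusters on a modified Illumina MiSeq flow-cell were annealed to 100 nM quencher-labelled ATP aptamer, then imaged in selection buffer and again after 15 min with 500 uM ATP at 22 °C. Five such cycles were run, with NaOH stripping and re-annealing between them, and clusters outside 100-1000 RFU were excluded.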
For the sequence TGATCAGCTA, the switch fluorescence ratio was 1.01.
In the case of TTACGTGTCA it was 0.983; in that of ACGTGTCCTG, 1.02.
Take GCAGGATT: the switch fluorescence ratio worked out at 0.983.
In the case of GCTGTTTTCG it was 1.03.
In the case of TGCTCCGGGT it was 1.02; in that of CTGGCACGTG, 0.991; in that of TTCCTCGGAC, 2.24.
For the sequence ACTTGAGGAA, the switch fluorescence ratio is 0.954.
The value for CTTTAGTACC was 1.04; that for ATTTACAAAG was 0.997.
The value for AGCATAAGGA was 1.03; that for CCGTAGACTG was 1.32; that for AAGCGGTTGA was 1.04.
With CAGGTGAGTC, the switch fluorescence ratio is 1.22.
In the case of TATAGTTCCC it was 1.04; in that of TACTCGTATA, 1.08.
CAAGCGGGCA: the switch fluorescence ratio came to 1.03.
In the case of GTTTGGGAG it was 0.944.
The value for CACGTCGCAC was 1.26; that for GATCGTTCGG was 0.914.
In the case of GTTACACCTT it was 1.06.
On to CCTGCCGC, for which the switch fluorescence ratio came to 1.38.
For the sequence ATCGGCCGTT, the switch fluorescence ratio was 0.98.
In the case of GGAGGGCGAT it was 1.
Consider GCTTTTGTTA, for which the switch fluorescence ratio is 1.01.
In the case of AGTCAGGTCG it was 1.04; in that of CGAATGGACG, 1.18; in that of GGGCGGGGT, 1.03.
In the case of CGAAGTACGG it was 1.24; in that of TGATGCTTGG, 1; in that of GATATGCGGC, 1.05.
In the case of CCCTTACCTC it was 1.13; in that of AGCCGTCTCA, 0.966; in that of TTGACACGCA, 1.14.
As to CGGCGTTA, the switch fluorescence ratio turned out to be 1.
The value for AACAATTGTA was 0.963; that for CACCGGTGTG was 1.01; that for CTCCAAACAT was 1.3.
Take ATGGTTGAAA: the switch fluorescence ratio came out at 1.02.
With TGGTCAAATA, the switch fluorescence ratio was found to be 1.02.
The value for AGATGGATGA was 1.03; that for GGAATCTCGT was 0.993; that for GCCTGCTCCA was 1.
Take GGGACATGAA: the switch fluorescence ratio is 1.01.
TGCCAAGGAG: the switch fluorescence ratio was 0.973.
In the case of GGGCGACGAT it was 0.977; in that of CACAACGGTT, 1.02; in that of AGAATAAAAT, 0.997.
The value for GATTGTTTAC was 1.13.
In the case of CTTGAGTGG it was 0.941; in that of AGACAACGAG, 1.02.
As for CCGAACATTT, the switch fluorescence ratio was determined as 1.14.
With TAGTGACTC, the switch fluorescence ratio is 1.09.
In the case of ACATCGTCAA, the switch fluorescence ratio is 1.14.
As to TACTTTTTGT, the switch fluorescence ratio stood at 0.998.
The value for CGTGAAGCTG was 1.02.
In the case of GTTACATCTC it was 1.06; in that of TGCAGGACAG, 0.963; in that of CAATTAATCG, 1.01.
In the case of AGCGCGGCTG it was 0.951; in that of AGACCCAGGT, 1.69; in that of TGATCGAATG, 1.02.
For the sequence CACCAGTGG, the switch fluorescence ratio worked out at 1.02.
Take GTCGGGATGT: the switch fluorescence ratio stood at 1.02.
For the sequence ATATCAGACC, the switch fluorescence ratio came to 0.965.
Regarding TGGAAGGAAC, the switch fluorescence ratio came to 1.
The value for AGTATTACGC was 0.956; that for GGCACTTCCC was 1.21; that for TATGTGGCTG was 0.978.
In the case of CGTAGTTCGC it was 1.06; in that of CTATTCAAGT, 1.11; in that of AAGGATATAG, 0.951.
In the case of AACTCCATTC it was 1.07; in that of GACGCCTGGT, 1.04.
AGGGTTCAGG: the switch fluorescence ratio was 1.02.
Regarding CCCTATGATT, the switch fluorescence ratio was determined as 0.934.
Consider GGTGGTTGAG, for which the switch fluorescence ratio came to 0.993.
The value for CTCTAAATCT was 1.27.
For the sequence GATAGATGAA, the switch fluorescence ratio amounted to 0.991.
For the sequence GCATGATTCA, the switch fluorescence ratio worked out at 0.959.
In the case of CCTCTCGGTA it was 2.48; in that of GCATAATAGG, 0.973; in that of TCTGAAGATA, 0.982.
With GCTGATGTCA, the switch fluorescence ratio amounted to 1.06.
Regarding TTAAGTAACA, the switch fluorescence ratio was 0.993.
For the sequence TGGTGGCAAG, the switch fluorescence ratio amounted to 0.956.
Take TTAGGGTGCG: the switch fluorescence ratio is 1.04.
In the case of TAAATGGTCA it was 0.99; in that of CCGCCGGGGA, 2.12; in that of CGAGCAGGGT, 1.61.
In the case of AAAACATAAT it was 0.94; in that of TCTTCCTTCG, 2.56; in that of ACCTGCCACG, 1.21.
The value for AACATTTGAT was 1.03; that for CAATCGGATC was 1; that for GTGAGTGAGG was 1.02.
Turning to ACGGGCCCGC, the switch fluorescence ratio came to 1.03.
In the case of GCTCGTTAAG it was 0.99; in that of GAAAATATTT, 0.991; in that of CCGTCAGGCT, 1.
In the case of GGCATCCATG it was 0.979.
The value for TAGCAGGATT was 1.04; that for GCCCGTCACA was 1.05; that for TAGCTTGCCA was 1.04.
With TCTAAATTCA, the switch fluorescence ratio was found to be 1.01.
For CTAACGGCGT, the switch fluorescence ratio was determined as 1.13.
In the case of ATTGGGGCAT it was 1.02.
Consider AGTACAGCCA, for which the switch fluorescence ratio was determined as 1.08.
In the case of CCGCCGTCGA it was 1.91.
The value for ATATCTGTTT was 1; that for ATCGAAACAG was 0.994.
The value for ATTCATATAT was 1.04.
Turning to GTGGACTGCG, the switch fluorescence ratio worked out at 0.961.
In the case of AAACCCAGA it was 1.02; in that of CTTTTAACGC, 1.08.
In the case of GTAATAAGA it was 0.982; in that of GTATATATTA, 1.01.
In the case of GGCCCCTTGT it was 1.04.
With TCCGAGTCGG, the switch fluorescence ratio came out at 1.1.
